# Experimental data reported in the supplement of paper PMC4604168 (melanoma cell lines).
# Some of the results follow. Most values come without repeats; read them as rough.
# Assays:
# Experiment in all cases: cell count relative to DMSO control; melanoma cells; higher = more viable cells
# Conditions in all cases: library dose: standard library concentration; 72 h
# G361 = system: G361
# IPC-298 = system: IPC-298
# IST-MEL1 = system: IST-MEL1
# LB2518-MEL = system: LB2518-MEL
# LOXIMVI = system: LOXIMVI
# MEL-HO = system: MEL-HO
# MZ2-MEL = system: MZ2-MEL
# MeWo = system: MeWo
# RPMI7951 = system: RPMI7951
# RVH-421 = system: RVH-421
# SkMel28 = system: SkMel28
# SkMel2 = system: SkMel2
# SkMel30 = system: SkMel30
# SkMel5 = system: SkMel5
# UACC257 = system: UACC257
# UACC62 = system: UACC62
# WM115 = system: WM115
# WM1716 = system: WM1716
# WM3526 = system: WM3526
# WM1745 = system: WM1745
# 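Further: cells treated in 1,536-well plates, then fixed and DAPI-stained, with nuclei counted from automated high-throughput microscope images.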
Structure (SMILES),cell count (G361) [%],cell count (IPC-298) [%],cell count (IST-MEL1) [%],cell count (LB2518-MEL) [%],cell count (LOXIMVI) [%],cell count (MEL-HO) [%],cell count (MZ2-MEL) [%],cell count (MeWo) [%],cell count (RPMI7951) [%],cell count (RVH-421) [%],cell count (SkMel28) [%],cell count (SkMel2) [%],cell count (SkMel30) [%],cell count (SkMel5) [%],cell count (UACC257) [%],cell count (UACC62) [%],cell count (WM115) [%],cell count (WM1716) [%],cell count (WM3526) [%],cell count (WM1745) [%]
"C[C@@H](Oc1cc(-c2cnn(C3CCNCC3)c2)cnc1N)c1c(Cl)ccc(F)c1Cl [Crizotinib] + COc1cc(N2CCC(N3CCN(C)CC3)CC2)ccc1Nc1ncc(Cl)c(Nc2ccccc2S(=O)(=O)C(C)C)n1 [NVP-TAE684] (first compound 1 µM, partner dose 0.4 µM)",76.6,114,94.5,70.5,109,92.8,89.3,71,60.2,82.5,41.5,55.4,129,56.3,75.8,54.1,36.5,93.3,73.9,–
"CS(=O)(=O)CCNCc1ccc(-c2ccc3ncnc(Nc4ccc(OCc5cccc(F)c5)c(Cl)c4)c3c2)o1 [lapatinib] + CCc1ccc(CCOc2ccc(CC3SC(=O)NC3=O)cc2)nc1 [pioglitazone] (first compound 4 µM, partner dose 10 µM)",79.3,89.2,90.2,118,98.3,73.8,62,73.1,62.3,102,64.9,77.8,80.9,53.2,77.7,42.3,96.7,83.4,70.6,–
"CS(=O)(=O)CCNCc1ccc(-c2ccc3ncnc(Nc4ccc(OCc5cccc(F)c5)c(Cl)c4)c3c2)o1 [lapatinib] + Cc1cc([N+](=O)[O-])ccc1NS(=O)(=O)c1cc(Cl)ccc1Cl [FH535] (first compound 4 µM, partner dose 5 µM)",41.1,53.6,52.9,70.4,76.3,43.6,37.1,62.7,48.9,56,45.1,79.2,72.1,39.1,63.2,56.9,73.8,64.3,62.1,–
"CNC(=O)c1cc(Oc2ccc(NC(=O)Nc3ccc(Cl)c(C(F)(F)F)c3)cc2)ccn1 [sorafenib] + COc1cc(N2CCC(N3CCN(C)CC3)CC2)ccc1Nc1ncc(Cl)c(Nc2ccccc2S(=O)(=O)C(C)C)n1 [NVP-TAE684] (first compound 2 µM, partner dose 0.4 µM)",72.5,70.2,93.3,82.1,98.1,80.2,104,71.4,74.4,99.6,84.5,43.7,128,63.5,81,71.4,71.6,92.8,72.6,–
"CNC(=O)c1cc(Oc2ccc(NC(=O)Nc3ccc(Cl)c(C(F)(F)F)c3)cc2)ccn1 [sorafenib] + Cc1cc([N+](=O)[O-])ccc1NS(=O)(=O)c1cc(Cl)ccc1Cl [FH535] (first compound 2 µM, partner dose 5 µM)",14.5,35.7,61.3,57.7,188,45.7,36.9,60.1,27.4,33.7,41.2,69,53.7,53,46.8,64.3,59.8,39,50,–
"C[C@@H](Oc1cc(-c2cnn(C3CCNCC3)c2)cnc1N)c1c(Cl)ccc(F)c1Cl [Crizotinib] + Cn1cc(/C=C2\C(=O)Nc3cccnc32)c2ccccc21 [GW441756] (first compound 1 µM, partner dose 2 µM)",94.5,91.8,123,92.7,103,106,105,108,103,105,62.2,113,102,66.7,88.7,87.7,79.8,102,108,–
"CN1CCN(c2ccc3nc(-c4c(N)c5c(F)cccc5[nH]c4=O)[nH]c3c2)CC1 [Dovitinib] + Cn1cc(/C=C2\C(=O)Nc3cccnc32)c2ccccc21 [GW441756] (first compound 0.5 µM, partner dose 2 µM)",61.9,70.1,79.4,66.9,96.2,68.8,65.4,62,79.8,97.7,49,72.2,95.5,47.2,102,64.9,66.9,88.8,67.4,–
"CNC(=O)c1cc(Oc2ccc(NC(=O)Nc3ccc(Cl)c(C(F)(F)F)c3)cc2)ccn1 [sorafenib] + COc1cc2ncnc(Nc3ccc(Oc4ccccc4)cc3)c2cc1OC [SrcI1] (first compound 2 µM, partner dose 10 µM)",53.3,79.6,87.5,106,94.9,77.2,85.3,62.7,29.9,97.4,60.3,72.3,97.6,77.1,70.8,59,54.2,79.3,52.7,–
"CS(=O)(=O)CCNCc1ccc(-c2ccc3ncnc(Nc4ccc(OCc5cccc(F)c5)c(Cl)c4)c3c2)o1 [lapatinib] + O=S(=O)(c1ccccc1)N(CC(F)(F)F)c1ccc(C(O)(C(F)(F)F)C(F)(F)F)cc1 [T0901317] (first compound 4 µM, partner dose 7 µM)",4.92,73.8,87.7,80.7,92.2,70.2,50.3,67.4,11.1,55.8,58.1,77.1,60.8,36.3,67.6,56.1,81.2,85.4,86.9,–
"C=CCNC1=C2C[C@@H](C)C[C@H](OC)[C@H](O)[C@@H](C)/C=C(\C)[C@H](OC(N)=O)[C@@H](OC)/C=C\C=C(/C)C(=O)NC(=CC1=O)C2=O [Tanespimycin] + N#Cc1c(O)c2c(-c3ccc(-c4ccccc4O)cc3)csc2[nH]c1=O [A769662] (first compound 0.01 µM, partner dose 10 µM)",71.5,88,62.3,78.2,109,83.2,90.1,72.7,28.4,82.1,66.3,92.4,82.7,83.2,94.5,50.7,22.3,81.1,84.9,–
"C[C@@H](Oc1cc(-c2cnn(C3CCNCC3)c2)cnc1N)c1c(Cl)ccc(F)c1Cl [Crizotinib] + CCN(CC)CCCCNc1ncc2cc(-c3cc(OC)cc(OC)c3)c(NC(=O)NC(C)(C)C)nc2n1 [PD173074] (first compound 1 µM, partner dose 0.5 µM)",92,93.4,97.2,76.1,106,90.8,87.8,88.3,111,89.8,63,79.2,90.9,72.1,87.2,84.2,46.5,86.8,75.5,–
"CN1CCN(c2ccc3nc(-c4c(N)c5c(F)cccc5[nH]c4=O)[nH]c3c2)CC1 [Dovitinib] + COc1cc(N2CCC(N3CCN(C)CC3)CC2)ccc1Nc1ncc(Cl)c(Nc2ccccc2S(=O)(=O)C(C)C)n1 [NVP-TAE684] (first compound 0.5 µM, partner dose 0.4 µM)",34.1,52.7,64.9,48,48.9,62.7,35.6,34.4,58.2,73.5,39,37.5,80.1,41.8,75,64.3,40.5,67.2,58.3,–
"CS(=O)(=O)CCNCc1ccc(-c2ccc3ncnc(Nc4ccc(OCc5cccc(F)c5)c(Cl)c4)c3c2)o1 [lapatinib] + O=C1NC(=O)/C(=C/c2ccc(-c3ccc(F)cc3O)o2)S1 [AS252424] (first compound 4 µM, partner dose 5 µM)",54.7,88,91,117,105,72.1,73.3,74.2,59.9,91.8,108,89.5,86,58.4,93.7,56.3,94.4,76.7,72.6,–
"C[C@@H](Oc1cc(-c2cnn(C3CCNCC3)c2)cnc1N)c1c(Cl)ccc(F)c1Cl [Crizotinib] + CCCCCCCCCCCC1=C(O)C(=O)C=C(O)C1=O [Embelin] (first compound 1 µM, partner dose 6 µM)",77.1,80.2,81.3,91,260,90.5,111,89.9,94.5,102,70.2,77.1,97.6,70.4,89.3,90.5,68.4,76.2,93.3,–
"C[C@@H](Oc1cc(-c2cnn(C3CCNCC3)c2)cnc1N)c1c(Cl)ccc(F)c1Cl [Crizotinib] + COCC[n+]1c2c(n(Cc3cnccn3)c1C)C(=O)c1ccccc1C2=O [YM155] (first compound 1 µM, partner dose 0.002 µM)",79.4,30.8,48.5,–,79.8,81.6,–,26.8,59.6,75,37.2,39.9,73.1,30.6,28.7,61.1,38.8,53.9,35.7,69.6
"CNC(=O)c1cc(Oc2ccc(NC(=O)Nc3ccc(Cl)c(C(F)(F)F)c3)cc2)ccn1 [sorafenib] + COC(=O)c1sccc1S(=O)(=O)Nc1ccc(Nc2ccccc2)cc1OC [GSK0660] (first compound 2 µM, partner dose 5 µM)",76.1,69.4,90,90,83.9,83.5,86,82.4,80,83.8,70.5,68.1,87.3,73.1,74.5,76.2,96.6,94.8,73.2,–
"CNC(=O)c1cc(Oc2ccc(NC(=O)Nc3ccc(Cl)c(C(F)(F)F)c3)cc2)ccn1 [sorafenib] + COCC[n+]1c2c(n(Cc3cnccn3)c1C)C(=O)c1ccccc1C2=O [YM155] (first compound 2 µM, partner dose 0.002 µM)",89.6,62.7,43.6,–,77.4,89.8,–,77.8,50.7,198,51.4,42.3,87.7,51.3,38.2,81,85.1,63.4,58.9,76.1
